Data published in the supplement of paper PMC8728848.
This is one part of the list.

What was measured:
Assay in all cases: glycan array binding signal (z-score within array); higher = stronger binding
Details in all cases: glycan notation: IUPAC condensed, linker removed
[1] = target: Fuc(a1-2)Gal(b1-4)GlcNAc(b1-2)Man(a1-3)[Fuc(a1-2)Gal(b1-4)GlcNAc(b1-2)Man(a1-6)]Man(b1-4)GlcNAc(b1-4)[Fuc(a1-6)]GlcNAc
Summary of the method: (§1)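 Columns mapping to the same glycan were averaged after glycan names were converted to IUPAC-condensed notation. The data come from 3228 arrays in the Consortium for Functional Glycomics database, limited to those with an available protein sequence. Binding is reported as a within-array Z-score averaged across arrays of one protein sequence and across linkers.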

[2] = target: Fuc(a1-2)Gal(b1-4)GlcNAc(b1-2)[Fuc(a1-2)Gal(b1-4)GlcNAc(b1-4)]Man(a1-3)[Fuc(a1-2)Gal(b1-4)GlcNAc(b1-2)Man(a1-6)]Man(b1-4)GlcNAc(b1-4)GlcNAc
Summary of the method: as §1

[3] = target: Fuc(a1-2)Gal(b1-4)GlcNAc(b1-3)Gal(b1-4)GlcNAc
Summary of the method: as §1

[4] = target: Fuc(a1-2)Gal(b1-4)GlcNAc(b1-3)Gal(b1-4)GlcNAc(b1-3)Gal(b1-4)GlcNAc
Summary of the method: as §1

[5] = target: Fuc(a1-2)Gal(b1-4)GlcNAc(b1-3)GalNAc
Summary of the method: as §1

[6] = target: Fuc(a1-2)Gal(b1-4)GlcNAc6S
Summary of the method: as §1

[7] = target: Fuc(a1-2)Gal(b1-4)[Fuc(a1-3)]GlcNAc
Summary of the method: as §1

[8] = target: Fuc(a1-2)Gal(b1-4)[Fuc(a1-3)]GlcNAc(b1-2)Man(a1-3)[Fuc(a1-2)Gal(b1-4)[Fuc(a1-3)]GlcNAc(b1-2)Man(a1-6)]Man(b1-4)GlcNAc(b1-4)GlcNAc
Summary of the method: as §1

[9] = target: Fuc(a1-2)Gal(b1-4)[Fuc(a1-3)]GlcNAc(b1-2)[Fuc(a1-2)Gal(b1-4)[Fuc(a1-3)]GlcNAc(b1-4)]Man(a1-3)[Fuc(a1-2)Gal(b1-4)[Fuc(a1-3)]GlcNAc(b1-2)Man(a1-6)]Man(b1-4)GlcNAc(b1-4)GlcNAc
Summary of the method: as §1

[10] = target: Fuc(a1-2)Gal(b1-4)[Fuc(a1-3)]GlcNAc(b1-3)Gal(b1-4)[Fuc(a1-3)]GlcNAc
Summary of the method: as §1

[11] = target: Fuc(a1-2)Gal(b1-4)[Fuc(a1-3)]GlcNAc(b1-3)Gal(b1-4)[Fuc(a1-3)]GlcNAc(b1-3)Gal(b1-4)[Fuc(a1-3)]GlcNAc
Summary of the method: as §1

[12] = target: Fuc(a1-2)Gal(b1-4)[Fuc(a1-3)]GlcNAc(b1-3)GalNAc
Summary of the method: as §1

Fuc(a1-2)Gal6S(b1-4)Glc = target: Fuc(a1-2)Gal6S(b1-4)Glc
Summary of the method: as §1

[13] = target: Fuc(a1-2)Gal6S(b1-4)Glc6S
Summary of the method: as §1

[14] = target: Fuc(a1-2)Gal6S(b1-4)GlcNAc
Summary of the method: as §1

Fuc(a1-2)[Gal(a1-3)]Gal = target: Fuc(a1-2)[Gal(a1-3)]Gal
Summary of the method: as §1

[15] = target: Fuc(a1-2)[Gal(a1-3)]Gal(b1-3)GlcNAc
Summary of the method: as §1

[16] = target: Fuc(a1-2)[Gal(a1-3)]Gal(b1-3)GlcNAc(b1-2)Man(a1-3)[Fuc(a1-2)[Gal(a1-3)]Gal(b1-3)GlcNAc(b1-2)Man(a1-6)]Man(b1-4)GlcNAc(b1-4)GlcNAc
Summary of the method: as §1

[17] = target: Fuc(a1-2)[Gal(a1-3)]Gal(b1-3)GlcNAc(b1-3)GalNAc
Summary of the method: as §1

[18] = target: Fuc(a1-2)[Gal(a1-3)]Gal(b1-4)Glc
Summary of the method: as §1

[19] = target: Fuc(a1-2)[Gal(a1-3)]Gal(b1-4)GlcNAc
Summary of the method: as §1

[20] = target: Fuc(a1-2)[Gal(a1-3)]Gal(b1-4)GlcNAc(b1-2)Man(a1-3)[Fuc(a1-2)[Gal(a1-3)]Gal(b1-4)GlcNAc(b1-2)Man(a1-6)]Man(b1-4)GlcNAc(b1-4)GlcNAc
Summary of the method: as §1

[21] = target: Fuc(a1-2)[Gal(a1-3)]Gal(b1-4)GlcNAc(b1-2)Man(a1-3)[Fuc(a1-2)[Gal(a1-3)]Gal(b1-4)GlcNAc(b1-2)Man(a1-6)]Man(b1-4)GlcNAc(b1-4)[Fuc(a1-6)]GlcNAc
Summary of the method: as §1

B1: Gal 4 (Canis lupus) (protein)
chain: MAYVPAPGYQPTYNPTLPYNKPIPGGLSVGMSVYIQGITSEHMRRFCVNFVAGAHPGSDIAFHFNPRFDGWDKVVFNSHLGGKWGSEEKKRSMPFRKGTHFELVFMVLAEHYKVVVNGNPFYEFGHRLPLQLVTHLQVEGDVELQSINFIGGTQPLGQGPGHTQQQPSSLPTMEGPPVFNPPVPFRKRLQGGLTVRRTVIIKGFVPFTSKSFVINFMVESSGDLALHINPRLTEGLVVRNSCLNGSWGSEDRKLSYNPFIPGQFFDLSIRCGMDRFKVYANGQHLFDFSHRLLALQNVDMLEINGDVTLSYIQV
With B1 as the binder, how does the “glycan array binding signal (z-score)” value [1] read?
The value was -0.159.

And the “glycan array binding signal (z-score)” value [2]?
Its value is -0.146.

What about the “glycan array binding signal (z-score)” value [3] of the same binder?
Its value is -0.117.

What about the “glycan array binding signal (z-score)” value [4] of the same binder?
Its value is -0.136.

What about the “glycan array binding signal (z-score)” value [5] of the same binder?
Its value is -0.137.

What about the “glycan array binding signal (z-score)” value [6] of the same binder?
Its value is -0.138.

What about the “glycan array binding signal (z-score)” value [7] of the same binder?
Its value is -0.158.

What about the “glycan array binding signal (z-score)” value [8] of the same binder?
Its value is -0.093.

What about the “glycan array binding signal (z-score)” value [9] of the same binder?
The value was -0.118.

What about the “glycan array binding signal (z-score)” value [10] of the same binder?
The value was -0.151.

And the “glycan array binding signal (z-score)” value [11]?
Its value is -0.151.

And the “glycan array binding signal (z-score)” value [12]?
The value was -0.113.

What about the “glycan array binding signal (z-score)” value (Fuc(a1-2)Gal6S(b1-4)Glc) of the same binder?
The value was -0.149.

And the “glycan array binding signal (z-score)” value [13]?
The value was -0.151.

What about the “glycan array binding signal (z-score)” value [14] of the same binder?
Its value is -0.153.

And the “glycan array binding signal (z-score)” value (Fuc(a1-2)[Gal(a1-3)]Gal)?
The value was -0.149.

What about the “glycan array binding signal (z-score)” value [15] of the same binder?
The value was 2.33.

What about the “glycan array binding signal (z-score)” value [16] of the same binder?
Its value is 0.887.

What about the “glycan array binding signal (z-score)” value [17] of the same binder?
Its value is -0.06.

And the “glycan array binding signal (z-score)” value [18]?
Its value is 8.77.

And the “glycan array binding signal (z-score)” value [19]?
The value was 1.75.

And the “glycan array binding signal (z-score)” value [20]?
Its value is 2.77.

What about the “glycan array binding signal (z-score)” value [21] of the same binder?
Its value is 0.337.
